Our source for the amyloid nucleation score values is the supplement of paper PMC12067230.

The data scatter; read single values as rough.
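Also: [psi-pin-] Saccharomyces cerevisiae expressing SupN fusions, induced by 100 µM Cu2SO4, selected 7 d at 30 °C without adenine and uracil, scored by deep sequencing of output versus input.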

One data set can be described thus: amyloid nucleation score relative to library mode (yeast Sup35 reporter selection) (log enrichment difference); higher = more amyloid nucleation; sequences are the first 22 residues of the Bri2 peptide extended by up to 12 random residues. Conditions: random library (experiment): 1;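 active = nucleation score significantly above 0 at FDR 0.05; inactive = not significantly above 0 or absent from output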. How it is done:
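Random C-terminal extensions of the 22-aa Bri2 peptide by 12 NNK codons; premature stops give shorter extensions. Peptides were fused to the Sup35 nucleation domain in S. cerevisiae [psi-pin-] and selected on -ADE-URA plates for 7 d at 30 °C. The nucleation score is log(output/input), centred to the mode of each of 3 independent libraries (1 input, 3 technical output replicates), with duplicates merged. Sequences absent from the output ('random_non_nuc') were imputed with the library mode value, so they are given as censored (<). Nucleators are scores significantly >0 at FDR 0.05.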
EASNCFAIRHFENKFAVETLICCCSLVLRVVLTY: the amyloid nucleation score entry was “inactive”.
The sequence EASNCFAIRHFENKFAVETLICCCSSSPSEIVGR yielded an amyloid nucleation score of 7.58.
Same read-out and setting: the figure for EASNCFAIRHFENKFAVETLICCCTLPAFPRVNW is 4.36; for EASNCFAIRHFENKFAVETLICCCVVLGLGRTRG it is 2.62.
Consider EASNCFAIRHFENKFAVETLICCCWSTGLQDQVR, for which the amyloid nucleation score is 6.37.
Regarding EASNCFAIRHFENKFAVETLICCCWSWGRNASLR, the amyloid nucleation score is 4.08.
On the same count and under the same terms, with EASNCFAIRHFENKFAVETLICCCWYFNVQLVTH the entry was “inactive”.
Same read-out and setting: with EASNCFAIRHFENKFAVETLICCDASSACFFLSW the figure was 7.93; with EASNCFAIRHFENKFAVETLICCDCCYWLCVALA, 7.31; with EASNCFAIRHFENKFAVETLICCDFTSVI, 7.75.
For the sequence EASNCFAIRHFENKFAVETLICCDKVLANQNVDN, the amyloid nucleation score entry is “inactive”.
EASNCFAIRHFENKFAVETLICCDMLYEWMQS: the amyloid nucleation score amounted to 0.674.
Still for that read-out and setting: the entry for EASNCFAIRHFENKFAVETLICCDQPDARTSHGE is “inactive”; for EASNCFAIRHFENKFAVETLICCDRP it is 0.136; for EASNCFAIRHFENKFAVETLICCDRSWQNRSHFV it is “inactive”.
Same read-out and setting: the figure for EASNCFAIRHFENKFAVETLICCDVFVVLLNGPL is 7.19; for EASNCFAIRHFENKFAVETLICCDVHK it is -0.00976; for EASNCFAIRHFENKFAVETLICCDVKYAMESGRS it is 1.49.
On the same count and under the same terms, the figure for EASNCFAIRHFENKFAVETLICCEAFRVNKVRLY is -0.0385; for EASNCFAIRHFENKFAVETLICCEAHHEHGDPSP it is “inactive”.
EASNCFAIRHFENKFAVETLICCECV: the amyloid nucleation score entry is “inactive”.
With EASNCFAIRHFENKFAVETLICCEE, the amyloid nucleation score result was “inactive”.
Same read-out and setting: the entry for EASNCFAIRHFENKFAVETLICCEELGHRQVRCT is “inactive”.
Turning to EASNCFAIRHFENKFAVETLICCEFSGGLSSVRT, the amyloid nucleation score was determined as 4.21.
With EASNCFAIRHFENKFAVETLICCELERGWVLSLW, the amyloid nucleation score entry is “inactive”.
The same measure, in the same setting: with EASNCFAIRHFENKFAVETLICCEMTSNVDETLS the figure was 3.81.

Still in this data set, the particulars now being: random library (experiment): 2.
Sequence EASNCFAIRHFENKFAVETLICCCSSYNSGNVFG registered an amyloid nucleation score of 8.49.
Same read-out and setting: the figure for EASNCFAIRHFENKFAVETLICCCTSVNILVYLT is 4.78; for EASNCFAIRHFENKFAVETLICCCVHHDVSALWY it is 8.23; for EASNCFAIRHFENKFAVETLICCCYLYCFVSFVR it is “inactive”.
On the same count and under the same terms, the figure for EASNCFAIRHFENKFAVETLICCCYVTFMGARQE is 4.8; for EASNCFAIRHFENKFAVETLICCCYYFSRCVMVV it is “inactive”.
Still for that read-out and setting: the figure for EASNCFAIRHFENKFAVETLICCDCLY is 8.05.
Turning to EASNCFAIRHFENKFAVETLICCDDSHSLFYG, the amyloid nucleation score worked out at 6.06.
On the same count and under the same terms, the figure for EASNCFAIRHFENKFAVETLICCDFYILLYSFNR is 7.54; for EASNCFAIRHFENKFAVETLICCDI it is “inactive”.
On the same count and under the same terms, with EASNCFAIRHFENKFAVETLICCDKSFRWCRKGG the figure was 1.64; with EASNCFAIRHFENKFAVETLICCDLFQLWVKGLT, 5.46; with EASNCFAIRHFENKFAVETLICCDLIVLLNGTGG, 8.44.
The sequence EASNCFAIRHFENKFAVETLICCDLSFYIGQVIQ returned an amyloid nucleation score of 8.19.
Still for that read-out and setting: with EASNCFAIRHFENKFAVETLICCDNCFT the figure was 6.29; with EASNCFAIRHFENKFAVETLICCDNSIHFCSVRS, -0.104; with EASNCFAIRHFENKFAVETLICCDPVRWCRVSCG, “inactive”.
Same read-out and setting: the figure for EASNCFAIRHFENKFAVETLICCDRESFIIWGSR is 3.14.
Still for that read-out and setting: the figure for EASNCFAIRHFENKFAVETLICCDRSHFLCNMLR is 4.58.
EASNCFAIRHFENKFAVETLICCDSGSITVITFL: the amyloid nucleation score entry is “inactive”.
Turning to EASNCFAIRHFENKFAVETLICCDVRF, the amyloid nucleation score came out at 6.66.
Same read-out and setting: with EASNCFAIRHFENKFAVETLICCDWKIANKLMAR the entry was “inactive”; with EASNCFAIRHFENKFAVETLICCDYC, 7.54; with EASNCFAIRHFENKFAVETLICCEFLIHYRIAMY, “inactive”.
On the same count and under the same terms, the figure for EASNCFAIRHFENKFAVETLICCEKLACVSFISE is 8.01; for EASNCFAIRHFENKFAVETLICCENGSYWLWGSA it is 5.77.

Staying with this data set, now noted: random library (experiment): 3.
EASNCFAIRHFENKFAVETLICCCTLNGEYYRMR came in with an amyloid nucleation score of 7.33.
Still for that read-out and setting: the figure for EASNCFAIRHFENKFAVETLICCCVDVDVCANVW is 8.38.
The sequence EASNCFAIRHFENKFAVETLICCCWLGLNMVYGT came in with an amyloid nucleation score of 1.3.
Sequence EASNCFAIRHFENKFAVETLICCCYGLR returned an amyloid nucleation score of 7.51.
The same measure, in the same setting: the entry for EASNCFAIRHFENKFAVETLICCDADSVERCCKG is “inactive”; for EASNCFAIRHFENKFAVETLICCDCLCTLSCGHW it is 6.46.
Still for that read-out and setting: the figure for EASNCFAIRHFENKFAVETLICCDMA is 5.67; for EASNCFAIRHFENKFAVETLICCDRS it is 5.07.
The same measure, in the same setting: with EASNCFAIRHFENKFAVETLICCDRYYWCASLVW the entry was “inactive”; with EASNCFAIRHFENKFAVETLICCDSFVKM, 6.67; with EASNCFAIRHFENKFAVETLICCDSIEVWRVPR, 5.62.
As to EASNCFAIRHFENKFAVETLICCDSMLNVVGGSR, the amyloid nucleation score stood at 5.16.
Same read-out and setting: the figure for EASNCFAIRHFENKFAVETLICCDTIYPCLCFSV is 7.87; for EASNCFAIRHFENKFAVETLICCDVTVYFYELNA it is 4.02; for EASNCFAIRHFENKFAVETLICCDWWWYGEIAFW it is “inactive”.
Still for that read-out and setting: with EASNCFAIRHFENKFAVETLICCDYDTNYSFRVV the figure was 1.54; with EASNCFAIRHFENKFAVETLICCEAYHPMSAWGI, 3.08; with EASNCFAIRHFENKFAVETLICCEFHVLKRNMSW, 3.8.
For the sequence EASNCFAIRHFENKFAVETLICCEGHAHW, the amyloid nucleation score came out at 3.93.
Same read-out and setting: the entry for EASNCFAIRHFENKFAVETLICCEGMDVGAEPRV is “inactive”.
Same read-out and setting: with EASNCFAIRHFENKFAVETLICCELGD the figure was 4.5.
The same measure, in the same setting: the figure for EASNCFAIRHFENKFAVETLICCENAFVETVETR is 2.39; for EASNCFAIRHFENKFAVETLICCENAKINFCRDP it is 9.6; for EASNCFAIRHFENKFAVETLICCENTL it is 5.62.
